PMC4336329 (PLoS ONE, 2015)
Hit rate of the full screen: of about 310,000 compounds, about 2,200 (0.71%) showed an effect of 50% or more. Effects have a minus sign here. The list shows a part of the results.

What follows are compounds tested against human ether-à-go-go-related gene (hERG) potassium channel (human, UniProt Q12809) (assay: primary screen, population patch clamp on CHO cells stably expressing hERG).
human ether-à-go-go-related gene (hERG) potassium channel, sequence (Q12809 whole entry, looked up): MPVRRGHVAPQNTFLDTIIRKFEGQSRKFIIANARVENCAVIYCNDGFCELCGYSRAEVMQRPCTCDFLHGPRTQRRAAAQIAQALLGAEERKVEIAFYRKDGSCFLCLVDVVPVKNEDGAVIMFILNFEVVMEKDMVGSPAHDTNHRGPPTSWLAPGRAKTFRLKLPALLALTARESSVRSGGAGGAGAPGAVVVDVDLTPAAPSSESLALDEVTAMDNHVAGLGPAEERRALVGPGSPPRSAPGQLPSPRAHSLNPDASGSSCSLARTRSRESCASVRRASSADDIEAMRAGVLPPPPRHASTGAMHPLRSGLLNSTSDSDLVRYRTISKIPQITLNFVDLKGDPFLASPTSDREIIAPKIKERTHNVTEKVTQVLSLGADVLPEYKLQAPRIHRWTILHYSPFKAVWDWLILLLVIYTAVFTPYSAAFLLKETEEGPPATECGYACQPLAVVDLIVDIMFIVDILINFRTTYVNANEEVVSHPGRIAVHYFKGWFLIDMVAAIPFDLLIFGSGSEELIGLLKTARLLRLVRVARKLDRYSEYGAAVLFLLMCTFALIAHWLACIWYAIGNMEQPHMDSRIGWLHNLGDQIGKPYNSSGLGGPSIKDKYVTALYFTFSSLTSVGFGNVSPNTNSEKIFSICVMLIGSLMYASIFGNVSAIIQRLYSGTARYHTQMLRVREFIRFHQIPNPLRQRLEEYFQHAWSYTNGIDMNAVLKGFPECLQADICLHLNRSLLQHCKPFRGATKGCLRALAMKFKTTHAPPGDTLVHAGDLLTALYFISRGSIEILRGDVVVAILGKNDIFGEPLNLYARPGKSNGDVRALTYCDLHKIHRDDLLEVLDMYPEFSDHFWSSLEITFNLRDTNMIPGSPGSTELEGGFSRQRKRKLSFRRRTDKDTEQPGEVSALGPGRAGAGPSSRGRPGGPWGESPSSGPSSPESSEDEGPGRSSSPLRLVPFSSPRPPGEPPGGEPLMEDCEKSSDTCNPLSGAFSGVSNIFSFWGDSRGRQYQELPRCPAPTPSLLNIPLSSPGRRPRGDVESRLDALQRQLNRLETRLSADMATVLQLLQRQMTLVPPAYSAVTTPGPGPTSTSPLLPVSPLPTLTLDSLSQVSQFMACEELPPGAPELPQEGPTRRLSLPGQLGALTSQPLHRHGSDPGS

Compound | hERG current change (%, negative = inhibition) at 1uM
Brc1ccc(-c2csc(N/N=C/c3cccnc3)n2)cc1 | 6.66%
O=C(C1CCC(=O)N(C2CCCC2)C1)N1CCN(Cc2cccc(F)c2)CC1 (stereo not shown) | 5.7%
CC[C@@]1(O)C(=O)OCc2c1cc1n(c2=O)Cc2cc3c(NC(=O)CN)cccc3nc2-1.Cl | 16.7%
COc1c(C)cc(C(=O)C2CCCN(Cc3cnc(C)s3)C2)cc1C (stereo not shown) | 2.78%
COc1cccc(/C=N/c2oc(-c3ccccc3)cc2C#N)c1O | 10.1%
CCc1cc(C(=O)NN2C(=O)NC3(CCCCC3)C2=O)sc1C | 17.8%
Cc1cccc(C2c3[nH]c4ccccc4c3CCN2C(=O)c2nn(C)c(=O)c3ccccc23)n1 (stereo not shown) | 12.7%
Cc1cc(/C(O)=C2\C(=O)C(=O)N(CCN(C)C)C2c2ccncc2)ccc1OCc1ccccc1 (stereo not shown) | 12.5%
Cc1nc2ccccc2c(=O)n1/N=C/c1cn(-c2ccccc2)nc1-c1cccs1 | 6.58%
CCN1CCN(C(C)CCc2ccccc2)CC1 (stereo not shown) | 5.81%
N#CCSc1ccccc1NC(=O)COC(=O)Cc1c[nH]c2ccccc12 | 12.9%
CC(C)(C)c1ccc(-c2n[nH]c(=S)n2C2CCCC2)cc1 | -0.949%
CC(C)CN(C(=O)CCC(=O)OCC(=O)c1ccc(F)c(F)c1)c1c(N)n(CC(C)C)c(=O)[nH]c1=O | 8.69%
O=C(c1nc2nc(-c3cccs3)cc(C(F)(F)F)n2n1)N1CCN(Cc2ccccc2)CC1 | -12.3%
CC(c1nccs1)N(C)C(=O)CCc1nnc(Cc2c[nH]c3ccccc23)o1 (stereo not shown) | 11.4%
CCn1nc(C)cc1C(=O)N1CCCC(C(=O)c2ccc(Oc3ccccc3)cc2)C1 (stereo not shown) | 14.7%
Cn1c(-c2ccc(F)cc2)cnc1SCC(=O)N1CCCCC1 | 14.6%
CNc1c(N)c(=O)oc2ccccc12 | 11.5%
Cc1cnn(C(=O)c2oc3ccccc3c2C)c1 | -5.76%
COc1ccc(C2N=C(c3ccccc3)C(C)(C)N2O)cc1OC (stereo not shown) | 12.4%
Nc1nc(N)c(N=Nc2ccc(SCC(=O)O)cc2)c(=O)[nH]1 | 11%
Cc1cc(OCCN2CCOCC2)ccc1C(C)C.Cl | 11.9%

Compound | hERG current change (%, negative = inhibition) at 1uM
CC1=NN(c2ccccc2)C(=O)/C1=C/c1cn(C)c2ccccc12 | 10.8%
CC(=O)c1c(C)[nH]c(C(=O)NNC(=O)COc2ccc(Cl)cc2C)c1C | -11.1%
CCCC(=O)N(c1ccc(OC)cc1)C1C=CS(=O)(=O)C1 (stereo not shown) | 0.819%
Cc1[nH]n(-c2ccccc2)c(=O)c1/C=N/NC(=O)c1ccc(O)cc1O | 13.6%
CCOC(=O)C1=C(CNCc2ccc(C)cc2)NC(=O)NC1c1cc(C)ccc1C (stereo not shown) | -15.9%
CCOC(=O)c1c(NC(=O)c2cccnc2Cl)sc(C(=O)N(C)C)c1C | 6.32%
CCN(Cc1ccccc1)S(=O)(=O)c1ccc(C(=O)Nc2nnc(C)o2)cc1 | -1.99%
CCC(=O)N1N=C(c2ccc(NS(C)(=O)=O)cc2)CC1c1ccc(N(C)C)cc1 (stereo not shown) | -4.14%
Cc1cccc(-n2c3nc(=O)[nH]c(=O)c-3cc3c(C)nn(-c4ccccc4)c32)c1C | 13.8%
O[C@H]1C2CCC1C(N1CCCCC1)CC2 (stereo partly shown) | 8.63%
O=C(CCCOc1ccccc1)N1CCN(c2ccccc2)CC1 | -4.93%
Cc1nc(NNC(=O)c2ccccc2)cc(-c2ccccc2)n1 | 9.3%
Oc1c(Br)cc(Br)cc1CNc1cccc2cccnc12 | 12.7%
CCCn1nnnc1SCC(=O)NCc1ccc(OC)cc1 | 7.59%
COc1ccc(-c2noc(CCC(=O)Nc3cc(OC)ccc3OC)n2)cc1 | 1.82%
COc1ccc(/C=N/n2c(C)nnc2C)c(OC)c1 | -2.39%
CCCCNC(=O)OCCNC(=O)Oc1cccc(C)c1 | 7.33%
Cc1cc(-c2ccccc2C(=O)Nc2ccccc2O)on1 | 12.1%
CC1(C(=O)Nc2ccccc2)Cc2ccccc2C(=O)O1 (stereo not shown) | 9.44%
CCCCCCn1c(CN2CCCCC2)nc2c1c(=O)n(C)c(=O)n2C | -0.165%
COCCNC(=O)/C(C#N)=C/c1c(N2CCN(C)CC2)nc2ccccn2c1=O | 12.8%
Cc1nn(C)c(Oc2ccccc2)c1CCNC(=O)CCl | 23.5%

Compound | hERG current change (%, negative = inhibition) at 1uM
S=c1c2c(nc3nc[nH]n13)CCC2 | 9.35%
Oc1ccccc1CN1CCCN(Cc2ccccc2O)C1 | 11.4%
CCc1ccccc1NC(=O)/C(=C/c1ccccc1)c1ccccc1 | -4.2%
CC(=O)NCCn1c(SCc2cc(F)ccc2F)nc2ccccc2c1=O | -2.83%
c1ccn(-c2ccc(N3CCOCC3)cc2)c1 | 1.48%
CCc1ccc(S(=O)(=O)Nc2c(C)n(C)n(-c3ccccc3)c2=O)cc1 | 1.6%
COc1ccc(C(NC(=O)c2cccnc2)c2cc(Cl)c3cccnc3c2O)cc1OC (stereo not shown) | 6.51%
CCOc1ccc(S(=O)(=O)NCCC(=O)NCCOc2ccccc2)cc1 | 3.45%
C/C=C\C=C\C(=O)N1CC2(CC(c3cccc(NC(=O)CC)c3)=NO2)C[C@H]1C(N)=O (stereo partly shown) | 10.1%
CCC(=O)Nc1cc(C(F)(F)F)ccc1N1CCCC1 | 8.59%
CCOc1ccc(C(=O)Nc2ccc(NC(=O)c3ccccc3)c(C)c2)cc1[N+](=O)[O-] | 14.1%
CCN(CC)CC(=O)Nc1ccc(-c2ccc(NC(=O)CN(CC)CC)c(OC)c2)cc1OC | 11.6%
Cl.OC(COCc1ccc(Cl)cc1)CN1CCN(c2ccccn2)CC1 (stereo not shown) | -24.9%
COc1ccccc1NC(=O)NC1(C(=O)N2CCCCCC2)CCCCC1 | 15.4%
O=C(CSc1ccccc1Cl)NC1CCCc2ccccc21 (stereo not shown) | 4.23%
O=C(CSc1nc(Nc2ccccc2)nc(N2CCOCC2)n1)Nc1ccc(Br)cc1F | 13.4%
CCC1CCCCN1C(=O)CCS(=O)(=O)c1ccc2c(c1)CCN2C(C)=O (stereo not shown) | 15.2%
O=[N+]([O-])c1ccc(-c2cn3ccccc3n2)cc1 | 9.49%
C=C1CCN([C@H](C(=O)NCc2ccc(Cl)c(Cl)c2)C(C)C)S(=O)(=O)c2ccccc21 | 8.39%
CCOC(=O)c1nn(-c2ccc(C)cc2)c2nc(Nc3ccccc3)cc(=O)n12 | 25.2%
Cc1ccc(C(=O)N/C(=C/c2ccco2)C(=O)NCCc2c[nH]c3ccccc23)cc1C | 7.17%
Cc1cc(COc2ccccc2)oc1C(=O)O | 14.4%

Compound | hERG current change (%, negative = inhibition) at 1uM
CS(=O)(=O)N(CCc1ccccc1)CC(=O)NCc1ccc2c(c1)OCO2 | -6.84%
CC(C)(C)c1ccc(C(=O)NCc2nnc(SCC(=O)NCC3CCCO3)o2)cc1 (stereo not shown) | 12.8%
O=C(N/N=C/c1ccccc1Cl)c1cccc(F)c1 | 1.86%
COc1ccc(-c2nc(N)nc(C)c2Oc2ccccc2Br)c(O)c1 | -0.597%
N/C(=N\OC(=O)c1ccc2ccccc2c1)c1cccc([N+](=O)[O-])c1 | 7.52%
C=CCSC(=S)Nc1c(C)n(C)n(-c2ccccc2)c1=O | 24.5%
CC(=O)Nc1ccc(S(=O)(=O)NC2CC(=O)N(c3ccc(C)c(C)c3)C2)cc1 (stereo not shown) | 21.6%
Cc1c(C)c2ccc(OC(C)C(=O)N3CC[C@@]4(O)CCCC[C@H]4C3)c(C)c2oc1=O (stereo partly shown) | 17.7%
CCNC(=S)NNC(=O)c1csc(C)c1 | 16.1%
COc1ccc(Nc2nc(C)nc3c2nnn3Cc2ccccc2)cc1OC | 4.84%
CN(C)S(=O)(=O)n1cnc2ccccc21 | 8.28%
CCN1C(=O)c2ccccc2S(=O)c2ccc(C(=O)NCCCN3CCCC3=O)cc21 (stereo not shown) | 6.94%
COC(=O)c1ccc(Oc2nc(SC)nc(N(C)C)n2)cc1 | 16.3%
Cc1cc2c3c(c1)C(C)(c1ccccc1)CC(C)(C)N3C(=O)C21C(C#N)=C(N)OC2=C1C(=O)CC(C)(C)C2 (stereo not shown) | -8.61%
Cc1ccc(Cn2ccc(NC(=O)c3cc(-c4cccs4)on3)n2)cc1 | 7.71%
COc1cccc(-c2nc(CS(=O)(=O)CC(=O)NCCCc3ccccc3)c(C)o2)c1 | 8.94%
COc1ccc(CC(NC(C)=O)C(=O)NC2CCN(C(=O)C3CCCCC3)CC2)cc1OC (stereo not shown) | 16.7%
Cc1ccc(OCCC(=O)N(CCC(C)C)c2c(N)n(Cc3ccccc3)c(=O)[nH]c2=O)cc1 | 9.14%
COC(=O)c1nc(NNC(=O)c2ccccc2)sc1-c1ccccc1 | 14.3%
NC(=O)C1CCN(C(c2ccccc2)c2nnnn2C2CCCC2)CC1 (stereo not shown) | 12.3%
CN(C)c1ccc(/C=N/NC(=O)CNC(=O)c2ccc3c(c2)OCCO3)cc1 | 8.33%
CC1CC(C)CN(c2ccc(-n3cnnn3)cc2[N+](=O)[O-])C1 (stereo not shown) | -1.54%
